Here are results for 41 variants from the RNAGym collection of RNA variant scans (doi:10.7554/elife.90254).

Read counts are not given, so values of variants with three or more changes are uncertain.

The chains are these.
B1: OR4K15 (parent)
chain: GUUAACGGUCAUAGGCCAUGGAAACUAGGAGCACCAUUUCGCUGCCAGUGAAGAAAUGAACAAAGAAAAUCUGGGCCAGGCAGGCAUCAAAAGAAAUAGUCUUGCGCUCAACCAGAAAGUCUGUAAUCAUUUUAAGGGUA

In the data set the parent is B1. Briefly: self-cleavage, relative activity (ratio to wild type); higher = more cleavage; in vitro, sequencing; the parent is a self-cleaving ribozyme.
As to GUUAACGGUCAUAGGCCAUGGAAACUAGGAGUACCAUUUCGCUGCCAGUGAAGAAAUGAACGAAGAAGAUCUGGGCCAGGCAGGCAUCAAAAGAAAUAGUCUUGCGCUCAACCAGAAAGUCUGUAAUCAUUUUAAGGGUA, the self-cleavage stood at 1.04.
Turning to GUUAACGGUCAUAGGCCAUGGAAACUAGGAACACCAUUUCGCUGCCAGUGAAGAAAUGAACAAAGAAAAUCCGGGCCAGGCUGGCAUCAAAAGAAAUAGUCUUGCGCUCAACCAGAAAGUCUGUAAUCAUUUUAAGGGUA, the self-cleavage came to 0.18.
Turning to GUUAACGGUCAUAGGCCAUGGAAACUAGGAGUACCAUUUCGCUGCCAGUGAAGAAAUGUACAAAGAAAAUCUGGGCCAGGCAGGCGUCAAAAGAAAUAGUCUUGCGCUCAACCAGAAAGUCUGUAAUCAUUUUAAGGGUA, the self-cleavage came out at 1.9.
On to GUUAACGGUCAUAGGCCAUGGAAACUAGGAACACCAUUUCGCUGCCAGUGAAGAAAUGAACAAAGAAAAUCUGGGCCAGGCAGGCAUCGAAAGAAAUAGUCUUGCGCUCAACCAGAAAGUCUGUAGUCAUUUUAAGGGUA, for which the self-cleavage amounted to 1.08.
The value for GUUAACGGUCAUAGGCCAUGGAAACUAGGAACACCAUUUCGCUGCCAGUGAAGAAAUGAACAAGGAAAAUCUGGGCCAGGCAGGCAUCAAAAGAAAUAGUCUUGCGCUCAGCCAGAAAGUCUGUAAUCAUUUUAAGGGUA was 0.03; that for GUUAACGGUCAUAGGCCAUGGAAACUAGGUGCACCACUUCGCUGCCAGUGAAGAAAUGAACAGAGAAAAUCUGGGCCAGGCAGGCAUCAAGAGAGAUAGUCUUGCGCGCAGCCAGAAAGUCUGUAAUCAUUUUAAGGGUA was 0.05.
With GUUAACGGUCAUAGGCCAUGGAAACUAGGUGCACCAUUUCGCUGCCAGUGAAGAAAGGAACAAAGAAAAUCUGGGCCAGGCAGGCGUCAAAAGAAAUAGUCUUGCGCUCAACCAGAAAGUCUGUAAUCAUUAUAAGGGUA, the self-cleavage came to 0.97.
Take GUUAACGGUCAUAGGCCAUGGAAACUAGGUGCACCAUUUCGCUGCCAGUGAAGAAACGAACAAAGAAAAUCUGGGCCAGGCAGGCAUCAAAAGAAAUAGUCUUGCGCUCUACCAGAAAGUCUGUAAUCAUUUUAAGGGUA: the self-cleavage is 0.34.
Turning to GUUAACGGUCAUAGGCCAUGGAAACUAGGUACACCAUUUCGCUGCCAGUGAAGUAAUGAACAAAGAAAAUCUGGGCCAGGCAGGCAUCAAAAGAAAUAGUCUUGCGCUCAACCAGAAAGUCUGUAAUCAUUUUAAGGGUA, the self-cleavage turned out to be 1.1.
Regarding GUUAACGGUCAUAGGCCAUGGAAACUAGGACCACCAUUUCGCUGCCAGUGAAGAAAUGAACAAAGAAAAUCUGGGCCAGGCAGGCAUCAAAAGAAAUAGUCUUGCGCUCAACCAGUAAGUCCGUAAUCAUUUUAAGGGUA, the self-cleavage stood at 0.22.
Regarding GUUAACGGUCAUAGGCCAUGGAAACUAGGUGCACCAUUUCGCUGCCAGUGAAGAAAUGAACAAAGAAAAUCUGGGCCAGGCAGGCAUCAAAAGAAAUAGUCUCGCGCUCAACCAGAAAGCCUGUAAUCAUUUUAAGGGUA, the self-cleavage came to 0.25.
Take GUUAACGGUCAUAGGCCAUGGAAACUAGGUGCACCAUUUCGCCGCCAGUGAAGAAAUGAACAAAGAAAAUCUGGGCCAGGCAGGCAUCAAAAGAGAUAGUCUUGCGCUCAACCAGGAAGUCUGUAAUCAUUUUAAGGGUA: the self-cleavage stood at 0.4.
On to GUUAACGGUCAUAGGCCAUGGAAACUAGGAGGACCAUUUCGCUGCCAGUGAAGAAAUGAACAAAGAAAAUCUGGGCCAGGCAGGCGUCAAAAGAAAUAGUCUUGCGCUCAACCAGAAAGUCUGUAACCAUUUUAAGGGUA, for which the self-cleavage came to 0.9.
As to GUUAACGGUCAUAGGCCAUGGAAACUAGGAGUACCAUUUCGCUGCCAGUGGAGAAAUGAACAAAGAAAAUCUGGGCCAGGCAGGCAUCAGAAGAAAUAGUCUUGCGCUCAACCAGAAAGUCUGUAAUCAUUUUAAGGGUA, the self-cleavage amounted to 1.99.
The value for GUUAACGGUCAUAGGCCAUGGAAACUAGGUGCACCAUUUCGCUGCCAGUGAAGAAAUGAACAAAGAAAAUCUGGGCCAGGCAAGCAUCAAAAGAAUUAGUCUUGCGCACAACCAGAAAGUCUGUAAUCAUUUUAAGGGCA was 0.02.
Take GUUAACGGUCAUAGGCCAUGGAAACUAGGAACACCAUUUCGCUGCCAGUGAAGAGAUGAACAAAGAAAAUCUGGGCCAGGCAGGCAUCAAAAGAAAUAGUCUUGCGCUCAACCAGAAAGUCUGUAAUCACUUUAAGGGUA: the self-cleavage turned out to be 1.32.
Regarding GUUAACGGUCAUAGGCCAUGGAAACUAGGAGUUCCAUUUCGCUGCCAGUGAAGAAAUGAACAAAGAAAAUCUGGGCCAGGCAGGCAUCAAAAGAAAUAGUCUUGCGCUCAACCAGAAAGCCUGUAAUCAUUUUAAGGGUA, the self-cleavage came to 1.24.
As to GUUAACGGUCAUAGGCCAUGGAAACUAGGUGCACCAUUACGCUGCCAGUGAAGAAAUGAACAAAGAAAAUCUGGGCCAGGCAGGCAUCAAAAGAAGUAGUCUCGCGCUCAACCAGAAAGUCUGUAAUCAUUUUAAGGGUA, the self-cleavage turned out to be 1.33.
The value for GUUAACGGUCAUAGGCCAUGGAAACUAGGAACACCAUUUCGCUGCCAGUGAAGGAAUGAACAAAGAAAAUCUGGGCCAGGCAGGCAUCAAAGGAAAUAGUCUUGCGCUCAACCAGAAAGUCCGUAAUCAUUUUAAGGGUA was 2.24; that for GUUAACGGUCAUAGGCCAUGGAAACUAGGACCACCAUUUCGCUGCCAGUGAAGAAAUGAACAAAGGAAAUCUGGGGCAGGCGGGCAUCAAAAGAAAUAGUCUUGCGCUCAACCAGAAAGUCUGUAAUCAUUCUAAGGGUA was 0.06.
As for GUUAACGGUCAUAGGCCAUGGAAACUAGGAACACCAUUUCGCUGCCAGUGAAGAAAUGAACAAAGAAAAUCUGGGCCAGGCAGGCAUCAAAAGAAAUAGUCUUGCGCUCAACCAGAAAGUCUGUAACCACUUUAAGGGUA, the self-cleavage amounted to 0.8.
Take GUUAACGGUCAUAGGCCAUGGAAACUAGGAGAACCAUUUCGCUGCCAGUGAAGAAAUGAACAAAGAAAAUCUGGGCCAGGCAGGCAUCAAAAGAAAUAGCCUUGCGCUCAACCAGAAAGUCUAUAAUCAUUUUAAGGGUA: the self-cleavage was found to be 1.98.
Regarding GUUAACGGUCAUAGGCCAUGGAAACUAGGACCACCACUUCGCUGCCAGUGAAGAAAUGAACAAAGAAAGUCUGGGCCAGGCAGGCAUCAAAAGAAAUAGUCUUGCGCUCAACCAGAAAGUCUGUAAUCAUUUUAAGGGUA, the self-cleavage was 1.
On to GUUAACGGUCAUAGGCCAUGGAAACUAGGAACACCAUUUCGCUGCCAGUGAAGAAAUGAACAAAGAAAAUCUGGGCCAGGCAGGCUUCAAAAGAAAUAGUCUUGCGCUCUACCGGAAAGUCUGUAAUCAUUUUAAGGGUA, for which the self-cleavage worked out at 1.27.
Consider GUUAACGGUCAUAGGCCAUGGAAACUAGGAUCACCAUUUCGCUGCCAGUGAAGAAAUGAACAGAGAAGAUCUGGGCCAGGCAGGCAUCAAAAGAAAUAGUCUUGCGCUCAACCAGAAAGUCUGUAAUCAUUUUAAGGGUA, for which the self-cleavage was found to be 1.59.
GUUAACGGUCAUAGGCCAUGGAAACUAGGAACACCAUUUCGCUGCCAGUGAAGAAAUGAACAAAGAAAAUCUGGGCCAGGCAGGCAUCAAAAGAAAUAGCCCUGCGCUCAACCAGAAAGUCCGUAUUCAUUUUAAGGGUA: the self-cleavage is 1.5.
With GUUAACGGUCAUAGGCCAUGGAAACUAGGAGAACCAUUUCGCUGCCAGUGAAGAAAUGAACAAUGAAGAUCUGGGCCCCGCAGGCAUCAAAAGAAAUAGUCUUGCGCUCAACCAGAAAGUCUGUAAUCAUUUUAAGGGUA, the self-cleavage was 0.12.
As for GUUAACGGUCAUAGGCCAUGGAAACUAGGUGCACAAUUUCGCUGCCAGUGAAGAAAUGAACAAAGAAAAUCUGGGCCAGGCAGGCAUCAAAAGAAAUAGUCUUGCGCUCAUCCAGAGAGUCUGUAAUCAUCUUAAGGGUA, the self-cleavage came out at 0.09.
Regarding GUUAACGGUCAUAGGCCAUGGAAACUAGGAGGACCAUUUCGCUGCUAGUGAAGAAGUGAACAAAGAAAAUCUGGGCCAGGCAGGCAUCAAAAGAAAUAGUCUUGCGCUCAACCAGAAAGUCUGUAAUCAUUUUAAGGGUA, the self-cleavage came out at 1.07.
Turning to GUUAACGGUCAUAGGCCAUGGAAACUAGGAACACCAUUUCGCUGCCAGUGAAGAAAUGAACAAAGAAAAUCUGGGCCAGGCAGGCAUCAAGAGAAAUAGUCUUGCGCUCAACCAGAAAGUCUGUAGUCAUUCUAAGGGUA, the self-cleavage was 0.91.
On to GUUAACGGUCAUAGGCCAUGGAAACUAGGAACACCAUUUCGCUGCCGGUGAAGAAAUGAGCAAAGAAAAUCUGGGCCAGGCAGGCAUCAAAAGAAAUAGUCUUGCGCUCAACCAGAAAGUCUGUAAUCAUUUUAAGGGUA, for which the self-cleavage is 0.43.
With GUUAACGGUCAUAGGCCAUGGAAACUAGGAACACCAUUUCACUGCCAGUGAAGAAAUGAACAAAGAAAAUCUGGGCCAGGCAGGCAUCAAAAGAAAUAGUCUUGCGCUCAACCAGAAAGUCUGUAAUCAUUCUAAGGGUA, the self-cleavage was 1.63.
For GUUAACGGUCAUAGGCCAUGGAAACUAGGUGCACCAUUUCGCAGCCAGUGAAGAAAUGAACAAAGAAAAUCUGGGCCAGGCAGGCAUCAAAAGAAAUAGUCUUGCGCUCAACCAAAAAGUCUGUAAUCAUUUUAAGGGUA, the self-cleavage came out at 0.17.
Consider GUUAACGGUCAUAGGCCAUGGAAACUAGGAACACCAUUUCGCUGCCAGUGAAGAAGUGAACAAAGAAAAUCUGGGCCUGGCUGGCAUCAAAAGAAAUAGUCUUGCGCUCAACCAGAAAGUCUGUAAUCAUUUUAAGGGUA, for which the self-cleavage was 0.08.
Consider GUUAACGGUCAUAGGCCAUGGAAACUAGGUGCACCAUUCCGCUGCCAGUGGAGAAAUGAACAAAGAAGAUCUGGGCCAGGCAGGCAUCAAAAGAAAUAGUCUUGCGCUCAACCAGAAAGUCUGUAAUCAUUUUAAGGGUA, for which the self-cleavage came out at 0.93.
As for GUUAACGGUCAUAGGCCAUGGAAACUAGGAGAACCAUUUCGCUGCCAGUGAUGAAAUGAACAAAGAGAAUCUGGGCCAGGCAGGCAUCAAAAGAAAUAGCCUUGCGCUCAACCGGAAAGUCUGUAAUCAUUUUAAGGGUA, the self-cleavage worked out at 1.77.
Take GUUAACGGUCAUAGGCCAUGGAAACUAGGAACACCUUUUCGCUGCCAGUGAAGAAGUGAACAAAGAAAAUCCGGGCCAGGCAGGCAUCAAAAGAAAUAGUCUUGCGCUCAACCAGAAAGUCUGUAAUCAUUUUAAGGGUA: the self-cleavage amounted to 0.13.
As for GUUAACGGUCAUAGGCCAUGGAAACUAGGAACACCAUUUCGCUGCCAGUGAAGAAAUGAACAGAGAAAAUCUGGGCCAGGCAGGCAUCAAAAGAAAUAGUCUUGCGCUCAACCAGAAAGUCUGUAAUCUUUUUAAGGGUA, the self-cleavage stood at 1.22.
Consider GUUAACGGUCAUAGGCCAUGGAAACUAGGUGCACCAUUUCGCUGCCAGUGAAGAAAUGAACAAAGAAAAUCUGGGCCAGGCAGGCAUCAAAAGAAAUAGUCUCGCGCUCGACCAGAAAGUCUGUAAUCAUUUUAAGGGUA, for which the self-cleavage came out at 0.17.
Turning to GUUAACGGUCAUAGGCCAUGGAAACUAGGAACACCAUUUCGCUGCCAGUGAAGAAAUGAACAAAGAAAAUCUGGCCCAGGCAGGCACCAAAAGAAAUAGUCUUGCGCUCAACCAGAAAGUCUGUAAUCAUUUUAAGGGUA, the self-cleavage came to 0.22.
For GUUAACGGUCAUAGGCCAUGGAAACUAGGAACGCCAUUUCGCUGCCAGUGAAGAAAUGAACAAAGAAGAUCUGGGCCAGGCAGGCAUCAAAAGAAAUAGUCUUGCGCUCGACCAGAAAGUCUGUAAUCAUUUUAAGGGUA, the self-cleavage was found to be 0.19.
